# Results from the supplement of paper PMC3334620.
# In all, about 33,000 sequences were measured (“E-score (-0.5 to 0.5)”: median about -0.016, highest 2% from about 0.31 on). Some of the results follow.
# Target: Cst6 (UniProt P40535)
# Experiment: PBM E-score (8-mer binding enrichment) (E-score (-0.5 to 0.5)); higher = stronger / more preferred TF binding; most listed sequences are background and not binding sites
# Details: protein concentration: 200 nM; construct: GST-DNA-binding domain
# Outline: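 GST-tagged yeast TFs (full-length or DNA-binding domain) were made by PURExpress in vitro transcription/translation and applied at about 100-200 nM to universal all-10-mer Agilent arrays. The arrays were made double-stranded by primer extension, on fresh or once-stripped slides. Bound protein was detected with fluorescent anti-GST, and scans were normalised with masliner. Each ungapped eight-base word, pooled with its reverse complement, received an E-score (modified Wilcoxon-Mann-Whitney statistic) from the Universal PBM Analysis Suite.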
row,Sequence,PBM E-score
1,TCTCGAAA,-0.0502
2,CGGGCTAG,-0.282
3,GGTGGAAC,-0.217
4,TGCGGAAA,-0.0266
5,CACTAGAG,-0.0532
6,AGTCGCGG,-0.212
7,TACATGCA,0.0997
8,AACGAATC,0.227
9,ACCGATCA,0.0358
10,ACTTTGCA,0.0884
11,CCGTGTTC,0.0724
12,TACTCAAA,0.243
13,CCAGCCTA,-0.297
14,ATTGGTAC,-0.105
15,ACCCAACT,-0.0923
16,AACCCCGC,-0.107
17,AATGCTCG,0.0362
18,CAAAAACA,0.0377
19,AATTGTTA,0.159
20,CAATAAAC,0.062
21,CCCTTCCA,-0.145
22,GATTGAAC,0.117
23,ACGATATC,0.18
24,CTGTCGCA,-0.146
25,ATAACGGC,0.147

row,Sequence,PBM E-score
1,ATTGCTTA,0.0947
2,ACCAGAAT,0.0698
3,CATAAACG,0.196
4,ACACATCG,-0.0609
5,GGCGTCAA,0.263
6,ATTTTGTG,0.236
7,ACCCGCAT,0.0703
8,CCACAGCG,-0.029
9,GCCCGCCA,-0.169
10,CAGCTTAG,-0.141
11,ATTTGCAC,0.14
12,ATACTCAC,0.0698
13,CGTACATC,-0.0558
14,ATGAGGGG,-0.208
15,GAGTAAGC,-0.189
16,GATTAGAC,-0.0447
17,GCACATGC,-0.0963
18,GGTGCTAC,-0.233
19,CCGGATTA,-0.0178
20,AGCGGACC,-0.184
21,CCAACTGC,-0.0842
22,ACAGCGGA,-0.12
23,AAGCGGGA,-0.174
24,CACCGAGA,-0.0382
25,AACCGCAC,-0.0597

row,Sequence,PBM E-score
1,CTCTACAA,0.00585
2,GGGTCAGA,-0.219
3,AGATACAA,0.284
4,CACAATGG,0.15
5,CATCATTA,0.327
6,TTATATAA,0.24
7,GAGCATGC,-0.142
8,AGCGGCGG,0.177
9,AGCATATA,0.0146
10,CGCCCCAG,-0.111
11,CCTTGATC,-0.0447
12,ACATGAAG,-0.00917
13,ACAAGAAC,0.243
14,CCGCCATC,-0.263
15,TATCTACA,0.151
16,GAGGTAAC,0.0786
17,ACGGGGCT,-0.299
18,CTAATCAG,0.00595
19,GTTGATTA,0.219
20,CAGCACAA,0.178
21,AAGCCAGC,-0.0119
22,CTTCTATC,-0.203
23,CCGGCCTA,-0.0867
24,CAACCCTA,-0.269
25,ATAGTCGC,-0.142

row,Sequence,PBM E-score
1,ATGTGAGA,0.0561
2,CGTGGCTC,-0.17
3,ATTACTCG,0.271
4,ATACTGTG,-0.0714
5,ATCATTAC,0.375
6,CCGCATTC,-0.0624
7,ACCACTCA,-0.0856
8,CCTCGCCC,-0.108
9,CGCGGCCA,0.0955
10,GTAGCTTA,0.151
11,CATCCTCC,-0.158
12,AGAACTTG,0.0129
13,AATGGCTG,-0.0687
14,AAATACAC,0.141
15,CAACTGCA,-0.013
16,CACGTCTG,0.0582
17,CAGCTAGG,-0.311
18,ACGTCACA,0.484
19,CGATATAG,0.0381
20,CGGTGAAC,-0.0267
21,GGGCGACC,-0.368
22,GCGGAACA,-0.135
23,GTCGTCCA,-0.114
24,ACATATGA,0.276
25,AGGGTTAG,-0.193

row,Sequence,PBM E-score
1,CGGACTCC,-0.188
2,AAGACCGG,-0.187
3,CCTCAGGC,-0.217
4,CGATAAAA,0.125
5,ACCCTTAC,0.0592
6,AACCTTGC,-0.0316
7,CTTTCAAC,0.0575
8,GTGAGCAC,-0.00779
9,CAGGTGCA,-0.0761
10,CAACATAA,0.183
11,CAAATCGG,0.0431
12,AATGGGAC,-0.175
13,CACGATCG,0.0279
14,ATTATGAC,0.394
15,CGGGACCC,-0.362
16,CTTGAGGA,-0.15
17,CTTTGTTA,0.156
18,CACGCTCG,-0.152
19,AGCGCCCC,-0.212
20,ACCCGTCA,0.137
21,AGTGCAAA,0.143
22,CGTTATTA,0.086
23,ACAAGGAC,-0.203
24,CTCGTCTC,-0.152
25,AGACCTCC,-0.379

row,Sequence,PBM E-score
1,ACGTACGC,0.229
2,CAAGCATC,-0.0664
3,ATCTGGTA,-0.00615
4,GTAAGTTA,0.194
5,TATATATA,0.315
6,ATGCATGG,0.0714
7,AGGGAATA,0.118
8,CATGCTCC,-0.169
9,AGTGCGGG,-0.123
10,AGAACAGA,-0.0648
11,CTTTTGAC,0.0353
12,TGGAAAAA,0.183
13,CGACCAAG,-0.205
14,AGTACTAG,-0.0462
15,TATCCGCA,0.209
16,GAGAATCA,0.0315
17,ATTCCAGA,0.206
18,CATGGGGA,-0.00402
19,GATGTCAA,0.245
20,CCTACGGA,-0.213
21,GCCGTTTA,0.233
22,CGTTTGTA,0.136
23,GAAGTGGC,-0.0167
24,ATGTTCAC,-0.0304
25,AGGCGCTG,0.031

row,Sequence,PBM E-score
1,CCGACATC,0.0433
2,CTCTTCAG,-0.0864
3,CTGGAAAC,0.0464
4,GCTACACA,-0.0596
5,AACGACTC,-0.201
6,CAGCGCGC,-0.0843
7,ACCGGCAG,-0.282
8,CACTTCTG,-0.0466
9,CATTTTTA,0.0761
10,AGCTGCTA,-0.112
11,CACTAATC,0.0524
12,GCTACGAC,0.0382
13,CATGAGTC,0.147
14,TAGAGCCA,-0.149
15,AATGAATC,-0.0335
16,CATCCATC,-0.182
17,GCGTCGAC,0.0915
18,GTTCTTGA,0.103
19,CCCTTACA,-0.051
20,CCGAGTGC,-0.119
21,AATCCTGA,0.13
22,CATGTTCA,-0.144
23,ATTAGTAA,0.222
24,ATCGTTCG,0.0403
25,GAGCCCTA,-0.21

row,Sequence,PBM E-score
1,CACGAATC,0.175
2,CGTATACA,0.24
3,CTATTCCC,-0.143
4,ATTGGGAA,-0.0713
5,TGCTTTAA,0.0492
6,GACGTTCA,0.2
7,GCGGCCCA,-0.136
8,CTACATTC,-0.157
9,GGAAAACC,-0.0924
10,GCCCGTCA,-0.0953
11,ATTGTGTA,0.194
12,AGAGTCAG,-0.119
13,AGCAGGAG,-0.167
14,GTGTCGAA,-0.0474
15,AACAAAGG,-0.0382
16,CCGACTTA,-0.00423
17,CCACCACA,-0.154
18,CCTTGACA,0.087
19,CTTTTTGA,0.123
20,ACATATCT,0.164
21,ACTTAGCC,0.028
22,CGCTGTTA,-0.0539
23,AATGTGTG,0.189
24,AGTGGGTG,0.0423
25,AACCCTGG,-0.291

row,Sequence,PBM E-score
1,AGGTACGA,-0.196
2,GAAGCCAC,-0.0583
3,AAACAGCT,-0.112
4,GAAGCAGA,0.0273
5,GATGAATA,0.196
6,CACACTTC,0.0627
7,CATTGCCG,0.0803
8,AGTAGACA,0.0104
9,CCCGTCAA,-0.228
10,AACCTAAA,0.196
11,AGATGATA,0.211
12,TGGAGCAA,0.0233
13,AGAATAGC,0.0158
14,ATCCTCGG,-0.048
15,AGTCGTAC,-0.239
16,CCCAATAA,0.0337
17,ACGAGGGG,-0.39
18,GCGTTGAC,0.195
19,ATCAGACG,0.0186
